Each structure is given as a SMILES string. The list shows a part of the results.

In this test the test system is S. aureus RN4220. The experiment in a line: growth inhibition call (relative growth <= 0.2). The conditions noted are these: 50 µM.
`CCOCC(=O)N1C[C@H]2CNC[C@H]2C1`: the growth inhibition call is “inactive”.

Turning to `CC1OC(OC2C(O)C(O)C(O)C(O)C2O)C(N)CC1NC(=N)C(=O)O.Cl` (centres undefined), the growth inhibition call is “inactive”.

For `C[C@H](O)[C@]12[C@@H]3CC=C[C@H]1N2CC3` (some centres undefined), the growth inhibition call is “inactive”.

Regarding `CC(=O)c1c(O)c(C)c(O)c(Cc2c(O)c3c(c(C(=O)/C=C/c4ccccc4)c2O)OC(C)(C)C=C3)c1O`, the growth inhibition call was “inactive”.

Take `S=C=NCc1ccccc1`: the growth inhibition call was “inactive”.

As to `O=C(O)[C@H]1C[C@H]2CCCCN2C1`, the growth inhibition call was “inactive”.

On to `[N-]=[N+]=NCc1ccccc1C[C@]1(C(=O)NCc2ccccc2)N=C(c2ccc(OCCCO)cc2)O[C@H]1c1ccccc1N=[N+]=[N-]`, for which the growth inhibition call is “inactive”.

As for `Cc1ccc(C2(CN)CCCCC2)cc1`, the growth inhibition call is “inactive”.

In the case of `COC1C(O)C(C)OC(OC2CCC3(C=O)C(CCC4C3CCC3(C)C(C5=CC(=O)OC5)CCC43O)C2)C1O` (centres undefined), the growth inhibition call is “inactive”.

In the case of `Cc1[nH]c2ccccc2c1CCN`, the growth inhibition call is “inactive”.

Take `CCOc1ccc(CN)cn1`: the growth inhibition call was “inactive”.

In the case of `CC(=O)O[C@H]1C[C@H](O[C@H]2[C@@H](O)C[C@H](O[C@H]3[C@@H](O)C[C@H](O[C@H]4CC[C@@]5(C)[C@@H](CC[C@H]6[C@@H]5C[C@@H](O)[C@]5(C)[C@@H](C7=CC(=O)OC7)CC[C@]65O)C4)O[C@@H]3C)O[C@@H]2C)O[C@H](C)[C@H]1O[C@@H]1O[C@H](CO)[C@@H](O)[C@H](O)[C@H]1O`, the growth inhibition call was “inactive”.

With `O=c1n(Cl)c(=O)n(Cl)c(=O)n1Cl`, the growth inhibition call was “inactive”.

`CCOP(=S)(OCC)Oc1ccc2c(C)c(Cl)c(=O)oc2c1`: the growth inhibition call is “inactive”.

With `CC(C)[C@@]1(NC(=O)[C@H]2C[C@@H]3c4cccc5[nH]cc(c45)C[C@H]3N(C)C2)O[C@@]2(O)[C@H]3CCCN3C(=O)[C@@H](Cc3ccccc3)N2C1=O`, the growth inhibition call is “inactive”.

For the compound `CO[C@@H]1C=C[C@@H]2[C@H]1N2CCCO` (some centres undefined), the growth inhibition call was “inactive”.

For the compound `CCOc1ccc(N2CCNCC2)nn1`, the growth inhibition call was “inactive”.

In the case of `CC(C)(O)C1C2OC(=O)C1C1(O)CC3OC34C(=O)OC2C14C` (centres undefined), the growth inhibition call was “inactive”.

On to `CNCC(O)c1ccc(O)cc1.CNCC(O)c1ccc(O)cc1.O=C(O)C(O)C(O)C(=O)O` (centres undefined), for which the growth inhibition call is “inactive”.

In the case of `Cc1scc(CCN)c1C`, the growth inhibition call was “inactive”.

Turning to `N[C@@H](Cc1ccc(O)cc1)C(=O)NCC(=O)NCC(=O)O`, the growth inhibition call was “inactive”.

Turning to `c1cncc(N2CCNCC2)c1`, the growth inhibition call was “inactive”.

As to `CC1(C)C(C=C(Cl)Cl)C1C(=O)OCc1cccc(Oc2ccccc2)c1` (centres undefined), the growth inhibition call is “inactive”.

Consider `CCCCCCCCCCCCCC(=O)O[C@@H]1[C@@H](C)[C@@]2(O)[C@@H](C=C(CO)C[C@]3(O)C(=O)C(C)=C[C@@H]23)[C@@H]2C(C)(C)[C@]12OC(C)=O`, for which the growth inhibition call is “inactive”.

In the case of `FCCN1C[C@H]2CCN[C@H]2C1`, the growth inhibition call is “inactive”.

On to `CC1(C)CCNC1=O`, for which the growth inhibition call is “inactive”.

As to `C[C@@H]1CN([C@H](C)CO)C(=O)CCCn2cc(nn2)CO[C@@H]1CN(C)C(=O)Oc1cccc2ccccc12`, the growth inhibition call is “inactive”.

Regarding `COc1cc2occc2c2oc(=O)ccc12`, the growth inhibition call is “inactive”.

With `CC(C)(C)C(O)(CCc1ccc(Cl)cc1)Cn1cncn1` (centres undefined), the growth inhibition call was “inactive”.

For the compound `O=C(NC[C@@H]1CC[C@H]2NC[C@H]2O1)C1CCCC1`, the growth inhibition call is “inactive”.

With `CCOCC(=O)N[C@H]1CCSC1=O`, the growth inhibition call is “inactive”.

`N=C(N)NOCCC(N)C(=O)O` (centres undefined): the growth inhibition call is “inactive”.

With `COCC12CN(C=O)C3C4C(OC)C1C3(C(OC)CC2O)C1CC2(O)C(OC)C(O)C4(OC(C)=O)C1C2OC(=O)c1ccccc1` (centres undefined), the growth inhibition call is “inactive”.

For the compound `COP(=O)(OC)OC=C(Cl)Cl`, the growth inhibition call was “inactive”.

With `CC(C(O)c1ccccc1)N(C)C` (centres undefined), the growth inhibition call is “inactive”.

Take `C[C@@H]1[C@H](O)[C@@H](C)/C=C\C=C/CC\C=C/C=C\C=C/C=C\[C@@H](O[C@@H]2O[C@H](C)[C@@H](O)[C@H](N)[C@@H]2O)C[C@@H]2O[C@](O)(C[C@@H](O)[C@H](O)CC[C@@H](O)C[C@@H](O)C[C@@H](O)CC(=O)O[C@H]1C)C[C@H](O)[C@H]2C(=O)O`: the growth inhibition call is “inactive”.

For `CS(=O)(=O)C1C[C@H]2CC[C@@H](C1)N2` (some centres undefined), the growth inhibition call is “inactive”.

On to `CC[C@@H](N)[C@@H](O)c1ccc(O)c(O)c1`, for which the growth inhibition call is “inactive”.

Take `CC(C)N1CCO[C@H]2CN(C(=O)N(C)C)C[C@@H]21`: the growth inhibition call was “inactive”.

The record behind these values is the antibiotic and cytotoxicity screens of Wong et al. (2023).
